The supplement of paper PMC10369915
The other results are listed elsewhere or left out. Rule as the data show it: active = 3.2 or more and inactive = the rest. Most of these values are background signal.

B1: ERBB4_HUMAN_1128 (peptide)
chain: EDSSTQRYSADPTVF
B2: ERBB4_HUMAN_1150 (peptide)
chain: GELDEEGYMTPMRDK
B3: ERBB4_HUMAN_1242 (peptide)
chain: KAFDNPDYWNHSLPP
B4: ERBB4_HUMAN_1258 (peptide)
chain: STLQHPDYLQEYSTK
B5: ERBB4_HUMAN_1258_YA (peptide)
chain: STLQHPDYLQEASTK
B6: ERBIN_HUMAN_1104 (peptide)
chain: AQIPEGDYLSYREFH
B7: ERBIN_HUMAN_1104_YA (peptide)
chain: AQIPEGDYLSAREFH
B8: 2ABB_HUMAN_295 (peptide)
chain: KFSHSGRYIMTRDYL
B9: ERN1_HUMAN_628 (peptide)
chain: EHPNVIRYFCTEKDR
B10: ERP29_HUMAN_66 (peptide)
chain: KFDTQYPYGEKQDEF
B11: ESR1_HUMAN_52 (peptide)
chain: DSSKPAVYNYPEGAA
B12: ESR1_HUMAN_537 (peptide)
chain: CKNVVPLYDLLLEML
B13: AF1L2_HUMAN_56 (peptide)
chain: SSDEEYIYMNKVTIN
B14: ESYT1_HUMAN_1009 (peptide)
chain: GRDPPDPYVSLLLLP
B15: ETS1_HUMAN_223 (peptide)
chain: TDTLQNDYFAIKQEV
B16: EZRI_HUMAN_146 (peptide)
chain: KEVHKSGYLSSERLI
B17: F16P1_HUMAN_216 (peptide)
chain: IYSLNEGYARDFDPA
B18: F16P1_HUMAN_216_YA (peptide)
chain: IASLNEGYARDFDPA

biological target: SHP2 C-SH2 domain E139D; test: enrichment score (SH2-bound / input frequency) (ratio); bacterial display of known human phosphotyrosine sites (pTyr-Var adds point mutants) read by sequencing; higher = stronger binding; tyrosines were phosphorylated by kinases first; settings: peptide library: Human pTyr
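Also: displayed peptides selected on beads carrying the immobilized SH2 domain, with library peptides lacking any tyrosine serving as negative controls.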

Enrichment score, inactive:
B1 0.578
B2 1.2
B3 0.823
B4 0.595
B5 0.682
B6 0.617
B7 0.616
B9 0.891
B10 0.949
B11 0.608
B12 1.8
B13 0.981
B14 1.25
B15 0.657
B16 0.832
B17 0.58
B18 0.632

Enrichment score, active:
B8 3.46

biological target: SHP2 C-SH2 domain wild-type; test: as above; settings: peptide library: Human pTyr

Enrichment score, inactive:
B1 0.517
B2 0.851
B3 0.689
B4 0.625
B5 0.644
B6 0.473
B7 0.602
B9 0.806
B10 0.858
B11 0.654
B12 1.68
B13 1.01
B14 0.838
B15 0.858
B16 0.871
B17 0.462
B18 0.495

Enrichment score, active:
B8 3.52

biological target: SHP2 N-SH2 domain L43F; test: as above; settings: peptide library: Human pTyr

Enrichment score, inactive:
B1 0.517
B2 0.941
B3 0.963
B4 0.838
B5 0.645
B6 0.564
B7 0.7
B8 3.11
B9 0.818
B10 0.869
B11 0.709
B12 1.79
B13 0.854
B14 1.14
B15 0.75
B16 0.897
B17 0.51
B18 0.508

biological target: SHP2 N-SH2 domain T42A; test: as above; settings: peptide library: Human pTyr

Enrichment score, inactive:
B1 0.449
B2 0.81
B3 0.8
B4 0.488
B5 0.542
B6 0.442
B7 0.447
B8 3.1
B9 0.846
B10 0.642
B11 0.712
B12 1.77
B13 0.836
B14 1.17
B15 0.831
B16 0.888
B17 0.552
B18 0.531

biological target: SHP2 N-SH2 domain T52S; test: as above; settings: peptide library: Human pTyr

Enrichment score, inactive:
B1 0.512
B2 0.855
B3 0.648
B4 0.666
B5 0.645
B6 0.546
B7 0.531
B9 1.1
B10 0.862
B11 0.748
B12 1.74
B13 0.867
B14 1.04
B15 0.89
B16 0.811
B17 0.635
B18 0.555

Enrichment score, active:
B8 3.63

biological target: SHP2 N-SH2 domain wild-type; test: as above; settings: peptide library: Human pTyr

Enrichment score, inactive:
B1 0.522
B2 0.872
B3 0.769
B4 0.526
B5 0.772
B6 0.585
B7 0.697
B9 1.02
B10 0.88
B11 0.821
B12 2.07
B13 1.36
B14 0.863
B15 0.834
B16 1.06
B17 0.475
B18 0.5

Enrichment score, active:
B8 4.43
